{
  "source": "the supplement of paper PMC9446081",
  "note": "Out of some 39,000 compounds screened, about 220 (0.56%) showed activity. Some of the results follow.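 Note: static incubation at 37 °C against the wild-type strain, values averaged over two biological replicates.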",
  "data": [
    {"system": "Escherichia coli K-12 BW25113", "assay": "relative growth (OD600 normalised to plate interquartile mean) (fraction); higher = less growth inhibition, active = 0.2 or less", "conditions": "50 µM; LB; incubation time: overnight (16-24 h)", "values": [
      {"compound": "COc1ccc2[nH]c(=O)[nH]c(=O)c2c1", "relative growth": "inactive: 0.826"},
      {"compound": "C[C@@H]1CCCCO[C@@H](CN(C)C(=O)Nc2cccc3ccccc23)[C@@H](C)CN([C@H](C)CO)C(=O)c2cc(NS(C)(=O)=O)ccc2O1", "relative growth": "inactive: 1"},
      {"compound": "Cc1noc(C)c1S(=O)(=O)N(C)C[C@@H]1Oc2ccc(NS(C)(=O)=O)cc2C(=O)N([C@H](C)CO)C[C@@H]1C", "relative growth": "inactive: 0.998"},
      {"compound": "Cc1ccc(S(=O)(=O)Nc2ccc3c(c2)CC(=O)N([C@@H](C)CO)C[C@@H](C)[C@H](CN(C)Cc2ccc(Cl)c(Cl)c2)O3)cc1", "relative growth": "inactive: 0.974"},
      {"compound": "Cc1ccccc1NC(=O)C[C@H]1NCCNC1=O", "relative growth": "inactive: 0.995"},
      {"compound": "COCC#Cc1ccc2c(c1)O[C@H](CN(C)C(=O)c1ccccc1F)[C@H](C)CN([C@@H](C)CO)S2(=O)=O", "relative growth": "inactive: 1.03"},
      {"compound": "O=C(C[C@@H]1C=C[C@@H](NS(=O)(=O)c2ccccc2F)[C@H](CO)O1)NCCCN1CCOCC1", "relative growth": "inactive: 1.02"},
      {"compound": "C[C@@H]1CN([C@@H](C)CO)C(=O)c2ccccc2-c2ccccc2CO[C@@H]1CN(C)C(=O)Nc1cccc(F)c1", "relative growth": "inactive: 0.977"},
      {"compound": "Cc1ccc(S(=O)(=O)Nc2cccc3c2O[C@H](CN(C)C(=O)NC(C)C)[C@@H](C)CN([C@H](C)CO)C3=O)cc1", "relative growth": "inactive: 0.99"},
      {"compound": "CC#CCOC(=O)C1=CCCN(C)C1", "relative growth": "inactive: 1.02"},
      {"compound": "C[C@@H]1CN([C@@H](C)CO)C(=O)c2cc(NC(=O)NC3CCCCC3)ccc2O[C@H]1CN(C)S(=O)(=O)c1cn(C)cn1", "relative growth": "inactive: 1.01"},
      {"compound": "C[C@@H]1CN([C@H](C)CO)C(=O)c2cc(-c3ccncc3)cnc2O[C@H]1CN(C)S(=O)(=O)c1ccccc1", "relative growth": "inactive: 1.04"},
      {"compound": "C[C@@H]1CCCCO[C@H](CN(C)C(=O)NC2CCCCC2)[C@@H](C)CN([C@H](C)CO)C(=O)c2cc(NS(=O)(=O)c3ccc(Cl)cc3)ccc2O1", "relative growth": "inactive: 1"},
      {"compound": "C[C@H](CO)N1C[C@H](C)[C@H](CN(C)Cc2ccc(C(=O)O)cc2)Oc2ccc(NC(=O)CCN3CCOCC3)cc2C1=O", "relative growth": "inactive: 0.991"},
      {"compound": "CN(C)C(=O)C[C@@H]1CC[C@@H]2[C@@H](COc3ccc(NS(=O)(=O)c4cccc(F)c4)cc3C(=O)N2C)O1", "relative growth": "inactive: 1.04"},
      {"compound": "C[C@@H]1CN([C@H](C)CO)C(=O)c2cccc(NC(=O)Nc3ccc4c(c3)OCO4)c2O[C@H]1CN(C)S(=O)(=O)c1cn(C)cn1", "relative growth": "inactive: 0.992"},
      {"compound": "COc1ccc(S(=O)(=O)Nc2ccc3c(c2)C(=O)N([C@@H](C)CO)C[C@H](C)[C@H](CN(C)C(=O)C2CCCCC2)OCCCC[C@@H](C)O3)cc1", "relative growth": "inactive: 1.01"},
      {"compound": "C[C@@H]1CCCCO[C@H](CN(C)S(=O)(=O)c2ccc(F)cc2)[C@H](C)CN([C@@H](C)CO)C(=O)c2cc(NS(=O)(=O)c3ccc(Cl)cc3)ccc2O1", "relative growth": "inactive: 1.04"},
      {"compound": "Cc1ccc(S(=O)(=O)Nc2ccc3c(c2)C(=O)N([C@@H](C)CO)C[C@@H](C)[C@@H](CN(C)S(=O)(=O)c2ccccc2)O3)cc1", "relative growth": "inactive: 1.04"},
      {"compound": "C=CCN(C(=O)[C@H]1N(CCOCCO)C(=O)[C@H]2[C@H](C(=O)O)[C@@H]3C=C[C@@]21O3)c1ccc(OC)cc1", "relative growth": "inactive: 1.03"},
      {"compound": "CCOC(=O)N1CCN(C(=O)CN(C)S(=O)(=O)c2ccc3c(c2)c(=O)n(C)c(=O)n3C)CC1", "relative growth": "inactive: 0.999"},
      {"compound": "COc1ccc(CN(C)C[C@@H]2OCCCC[C@@H](C)Oc3ccc(NC(=O)C4CCCCC4)cc3C(=O)N([C@@H](C)CO)C[C@@H]2C)cc1", "relative growth": "inactive: 1.01"},
      {"compound": "C[C@H]1CN([C@@H](C)CO)C(=O)c2cc(NC(=O)CCCN(C)C)ccc2O[C@@H]1CN(C)C(=O)Nc1ccc2c(c1)OCO2", "relative growth": "inactive: 0.994"},
      {"compound": "CC(C)N1C[C@H](C)[C@@H](CN(C)Cc2ccc(Cl)cc2)Oc2c(C(=O)Nc3ccncc3)cccc2C1=O", "relative growth": "inactive: 0.971"},
      {"compound": "C[C@@H]1CCCCO[C@H](CN(C)Cc2ccccc2)[C@H](C)CN([C@H](C)CO)C(=O)c2cc(NS(=O)(=O)c3ccc(Cl)cc3)ccc2O1", "relative growth": "inactive: 0.984"},
      {"compound": "NS(=O)(=O)c1ccc2c(c1)OCCO2", "relative growth": "inactive: 0.979"},
      {"compound": "CN(C)CC(=O)N[C@H]1CC[C@@H](CC(=O)O)O[C@@H]1CO", "relative growth": "inactive: 0.996"},
      {"compound": "N#Cc1ccccc1C#CCO", "relative growth": "inactive: 0.965"},
      {"compound": "C[C@H]1CN([C@@H](C)CO)C(=O)c2cccc(NC(=O)c3cnccn3)c2O[C@@H]1CN(C)S(=O)(=O)c1ccc(F)cc1", "relative growth": "inactive: 0.996"},
      {"compound": "C[C@@H]1CCCCO[C@H](CN(C)CC2CCCCC2)[C@H](C)CN([C@@H](C)CO)C(=O)c2cc(NC(=O)Nc3ccccc3)ccc2O1", "relative growth": "inactive: 0.963"},
      {"compound": "C[C@@H]1CN([C@H](C)CO)C(=O)c2cc(NC(=O)C3CC3)ccc2O[C@@H]1CN(C)C(=O)NC1CCCCC1", "relative growth": "inactive: 0.971"},
      {"compound": "C[C@@H]1CN([C@H](C)CO)C(=O)Cc2cc(NC(=O)Cn3cnnn3)ccc2O[C@@H]1CN(C)S(=O)(=O)c1ccccc1", "relative growth": "inactive: 0.975"},
      {"compound": "C[C@H](CO)N1C[C@H](C)[C@H](CN(C)Cc2ccc(C(F)(F)F)cc2)Oc2c(NC(=O)Nc3cccc4ccccc34)cccc2C1=O", "relative growth": "inactive: 1"},
      {"compound": "CN1C(=O)c2cc(NC(=O)C3CCOCC3)ccc2OC[C@H]2O[C@@H](CC(=O)NCc3ccc4c(c3)OCO4)CC[C@@H]21", "relative growth": "inactive: 0.993"},
      {"compound": "COc1ccc(NC(=O)N(C)C[C@@H]2OCCCC[C@H](C)Oc3ccc(NC(=O)C4CCCCC4)cc3C(=O)N([C@@H](C)CO)C[C@H]2C)cc1", "relative growth": "inactive: 0.978"},
      {"compound": "Nc1nc(Cl)nc2c1ncn2[C@H]1C[C@H](O)[C@@H](CO)O1", "relative growth": "inactive: 0.971"},
      {"compound": "COc1ccc(S(=O)(=O)N(C)C[C@@H]2Oc3ccc(NC(=O)C4CC4)cc3C(=O)N([C@H](C)CO)C[C@@H]2C)cc1", "relative growth": "inactive: 1"},
      {"compound": "COCC(=O)N(C)C[C@@H]1Oc2cc(C#C[C@H](C)O)ccc2S(=O)(=O)N([C@@H](C)CO)C[C@@H]1C", "relative growth": "inactive: 1"},
      {"compound": "C[C@H]1CN([C@@H](C)CO)C(=O)c2cc(-c3cccc(C(=O)N(C)C)c3)cnc2O[C@H]1CN(C)S(=O)(=O)c1ccc(F)cc1", "relative growth": "inactive: 0.996"},
      {"compound": "O=C(C[C@@H]1C[C@H]2c3cc(NC(=O)c4cccnc4)ccc3O[C@H]2[C@H](CO)O1)NCc1cc(F)ccc1F", "relative growth": "inactive: 0.992"},
      {"compound": "C[C@H](CO)N1C[C@H](C)[C@H](CN(C)S(C)(=O)=O)Oc2c(cccc2N(C)C)C1=O", "relative growth": "inactive: 0.989"},
      {"compound": "COc1ccc(NC(=O)N(C)C[C@@H]2Oc3c(NC(=O)Nc4ccc(C(F)(F)F)cc4)cccc3C(=O)N([C@@H](C)CO)C[C@H]2C)cc1", "relative growth": "inactive: 0.789"},
      {"compound": "C[C@@H]1CN([C@@H](C)CO)C(=O)Cc2cc(NC(=O)Cc3ccccc3)ccc2O[C@@H]1CN(C)S(=O)(=O)c1cn(C)cn1", "relative growth": "inactive: 1.03"},
      {"compound": "C[C@@H]1CN([C@H](C)CO)C(=O)c2cc(NS(=O)(=O)c3ccccc3)ccc2O[C@@H]1CN(C)S(=O)(=O)c1cn(C)cn1", "relative growth": "inactive: 0.968"},
      {"compound": "C[C@H](CO)N1C[C@H](C)[C@@H](CN(C)CC2CC2)Oc2ccc(NC(=O)CCN3CCOCC3)cc2CC1=O", "relative growth": "inactive: 1.02"},
      {"compound": "COCCCNC(=O)[C@]1(Cc2ccccc2N=[N+]=[N-])N=C(c2ccc(OCCCO)cc2)O[C@@H]1c1ccccc1", "relative growth": "inactive: 1.05"},
      {"compound": "C[C@H](CO)N1C[C@H](C)[C@H](CN(C)C(=O)CCC(F)(F)F)OCCCC[C@H](C)Oc2ccc(NC(=O)NC3CCCCC3)cc2C1=O", "relative growth": "inactive: 1.01"},
      {"compound": "CC(C)NC(=O)N(C)C[C@H]1OCCCC[C@@H](C)Oc2ccc(NC(=O)Nc3cccc4ccccc34)cc2C(=O)N([C@H](C)CO)C[C@@H]1C", "relative growth": "inactive: 0.989"},
      {"compound": "CC(C)NC(=O)Nc1ccc2c(c1)CC(=O)N([C@@H](C)CO)C[C@@H](C)[C@H](CN(C)C(=O)Nc1ccc3c(c1)OCO3)O2", "relative growth": "inactive: 0.985"},
      {"compound": "Cc1noc(C)c1S(=O)(=O)Nc1ccc2c(c1)C(=O)N([C@@H](C)CO)C[C@@H](C)[C@@H](CN(C)CC1CCCCC1)OCCCC[C@H](C)O2", "relative growth": "inactive: 0.964"},
      {"compound": "C[C@@H]1CN([C@@H](C)CO)C(=O)c2cc(NS(=O)(=O)c3cccs3)ccc2O[C@H]1CN(C)S(=O)(=O)c1cccs1", "relative growth": "inactive: 1.01"},
      {"compound": "N[C@H]1CC[C@H](CCn2cc(-c3cccc(F)c3)nn2)O[C@@H]1CO", "relative growth": "inactive: 0.991"},
      {"compound": "O=C(C[C@@H]1CC[C@H]2[C@@H](COC[C@@H](O)CN2S(=O)(=O)c2ccccc2F)O1)NCc1ccccc1Cl", "relative growth": "inactive: 1.03"},
      {"compound": "Nc1nnnn1/N=C\\c1ccc(O)cc1", "relative growth": "inactive: 0.995"},
      {"compound": "COc1ccc(NC(=O)N[C@H]2CC[C@@H](CCNC(=O)CN3CCOCC3)O[C@H]2CO)cc1", "relative growth": "inactive: 0.99"},
      {"compound": "Cc1noc(C)c1NC(=O)Nc1ccc2c(c1)C(=O)N([C@@H](C)CO)C[C@@H](C)[C@@H](CN(C)C(=O)C1CCCCC1)OCCCC[C@@H](C)O2", "relative growth": "inactive: 0.98"},
      {"compound": "CO[C@@H]1CN(C)C(=O)c2ccc(NC(=O)C3CC3)cc2OC[C@H](C)N(C(=O)Cc2ccccn2)C[C@H]1C", "relative growth": "inactive: 0.982"},
      {"compound": "CN1CCN(C(=O)C[C@@H]2C[C@@H]3c4cc(NS(=O)(=O)c5ccc(F)cc5)ccc4O[C@@H]3[C@H](CO)O2)CC1", "relative growth": "inactive: 1.01"},
      {"compound": "C[C@@H]1CN([C@H](C)CO)C(=O)CCCn2nncc2CO[C@@H]1CN(C)C(=O)Nc1cccc(Oc2ccccn2)c1", "relative growth": "inactive: 0.992"},
      {"compound": "C[C@@H]1CCCCO[C@H](CN(C)Cc2ccc3c(c2)OCO3)[C@H](C)CN([C@H](C)CO)C(=O)c2cc(NC(=O)Cc3ccccc3)ccc2O1", "relative growth": "inactive: 1.01"},
      {"compound": "C[C@@H]1CCCCO[C@H](CN(C)Cc2ccc3c(c2)OCO3)[C@H](C)CN([C@@H](C)CO)C(=O)c2cc(NC(=O)Nc3ccc(F)cc3)ccc2O1", "relative growth": "inactive: 0.983"}
    ]}
  ]
}
